Test results reported in US20250171558A1 (published 2025).

Biological target: T1, human FcγRIIB (human, UniProt P31994 43-217)
T1 chain: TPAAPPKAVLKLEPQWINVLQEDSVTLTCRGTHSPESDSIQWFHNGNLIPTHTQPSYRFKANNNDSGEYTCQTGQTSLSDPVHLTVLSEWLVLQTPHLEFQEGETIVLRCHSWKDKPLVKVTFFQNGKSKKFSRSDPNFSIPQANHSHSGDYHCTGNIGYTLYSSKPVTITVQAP
Assay: SPR; human

Kd: 1.44 µM
B1: GAIE (protein)
chain: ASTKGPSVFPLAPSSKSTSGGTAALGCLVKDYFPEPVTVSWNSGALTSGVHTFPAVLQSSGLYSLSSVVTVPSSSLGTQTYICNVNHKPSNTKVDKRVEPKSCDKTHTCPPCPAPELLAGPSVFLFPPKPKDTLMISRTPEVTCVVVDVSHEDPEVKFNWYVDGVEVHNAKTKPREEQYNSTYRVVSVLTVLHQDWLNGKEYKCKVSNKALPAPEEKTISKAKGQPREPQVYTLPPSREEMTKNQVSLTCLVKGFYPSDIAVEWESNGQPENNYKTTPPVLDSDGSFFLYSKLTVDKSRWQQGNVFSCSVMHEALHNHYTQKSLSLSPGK
